Results published in PubChem BioAssay AID1460 (National Center for Advancing Translational Sciences (NCATS), 2008).
The whole screen tested about 270,000 compounds, of which about 5,800 (2.1%) were called active. Inconclusive means that the source gave no clear call. Such entries were picked first, then a sample of the others. The call rests on the fitted dose curve; in most records, active means well fitted inhibition curve with a large enough effect; inconclusive means small, poorly fitted or top-dose-only effect; inactive means flat fitted curve, though single readings scatter. Potencies beside an inconclusive call are fits to weak or partial responses and may not hold up.

Each compound was assayed against Microtubule-associated protein tau (Homo sapiens) (UniProt P10636) (assay: qHTS for Inhibitors of Tau Fibril Formation, Thioflavin T Binding). Settings: recombinant tau K18 P301L, heparin-induced fibrillization, ThT fluorescence; series mostly up to 57.4 µM; activity, negative = inhibition: at the top concentration.
Summary of the method: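 Using a mix of unlabeled (15 uM) and Alexa 594-labeled (0.24 uM) tau K18 P301L, heparin-triggered fibrillization over 6 hr at 37 C was scored by ThT fluorescence.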
Further: nearly all actives have a fitted effect of over 55% in size.
On the % scale 0 is the no-effect control and ±100 the full control effect; potency means the concentration at half of the fitted maximal effect; tags describe the fitted curve by direction and shape.

Sequence of UniProt P10636 (P10636 whole entry, looked up): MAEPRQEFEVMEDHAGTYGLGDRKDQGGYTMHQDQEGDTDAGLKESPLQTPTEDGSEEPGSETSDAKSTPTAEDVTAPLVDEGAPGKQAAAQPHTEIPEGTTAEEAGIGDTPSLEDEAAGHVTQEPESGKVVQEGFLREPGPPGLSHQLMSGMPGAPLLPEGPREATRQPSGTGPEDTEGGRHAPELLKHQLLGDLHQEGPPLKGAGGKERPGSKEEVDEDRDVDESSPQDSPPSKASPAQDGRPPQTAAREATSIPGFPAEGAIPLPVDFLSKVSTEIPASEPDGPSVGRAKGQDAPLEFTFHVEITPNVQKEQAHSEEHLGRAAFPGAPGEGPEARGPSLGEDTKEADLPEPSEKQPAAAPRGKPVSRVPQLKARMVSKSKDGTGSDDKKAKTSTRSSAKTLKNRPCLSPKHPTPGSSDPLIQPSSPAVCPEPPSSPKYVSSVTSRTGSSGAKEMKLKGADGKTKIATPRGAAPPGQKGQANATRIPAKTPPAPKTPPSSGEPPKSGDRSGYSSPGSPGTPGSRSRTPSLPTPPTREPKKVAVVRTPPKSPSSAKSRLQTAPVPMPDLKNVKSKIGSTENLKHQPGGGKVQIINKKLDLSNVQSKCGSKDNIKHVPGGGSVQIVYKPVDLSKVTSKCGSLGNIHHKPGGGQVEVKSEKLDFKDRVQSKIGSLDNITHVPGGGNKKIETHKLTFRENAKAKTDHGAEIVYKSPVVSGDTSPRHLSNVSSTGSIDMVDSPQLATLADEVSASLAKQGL

| SMILES | Potency | activity, negative = inhibition |
| --- | --- | --- |
| C/C(=N/Nc1nc(-c2ccc(Cl)cc2)cs1)c1cccs1 | inconclusive: 15.8 µM [inhibitor, partial curve] |  |
| O=c1[nH]c(/C=C2\C=Nc3ccccc32)c(O)n1Cc1ccccc1F | inconclusive: 15.8 µM [inhibitor, partial curve] |  |
| COc1ccc(OCC(=O)Nc2nnc(-c3ccco3)s2)cc1 | inconclusive: 1.26 µM [inhibitor, partial curve] |  |
| CCOC(=O)C(CC)/C(C)=N/NC(=O)c1ccc([N+](=O)[O-])cc1 (stereo unspecified) | inconclusive: 31.6 µM [inhibitor, single point] |  |
| CCCCSc1nnc(CCNC(=O)OC(C)(C)C)o1 |  | inactive: -9.91% |
| CN1c2ccccc2C(C)(C)C12CCCC(=O)N2 (stereo unspecified) | inconclusive: 31.6 µM [inhibitor, single point] |  |
| CCOc1ccc(-n2c(SCC(=O)Nc3ccc(OC)cc3OC)nc3c(c2=O)SCC3)cc1 | inconclusive: 25.1 µM [inhibitor, partial curve, poor fit] |  |
| CCOc1ccccc1OCCCCn1c(-c2ccc(Cl)cc2)nc2ccccc2c1=O |  | inactive: -4.48% |
| CCCN1C(=O)/C(=C\C=C2/Sc3ccccc3N2CC)SC1=S | inconclusive: 1.41 µM [inhibitor, full curve] |  |
| CCCCN1C(=O)c2ccc(C(=O)Nc3ccc(C)c(S(=O)(=O)N(C)C)c3)cc2C1=O | inconclusive: 39.8 µM [inhibitor, single point] |  |
| CCCCN(C(=O)c1ccc2c(c1)OCO2)c1ccccc1 | inconclusive: 39.8 µM [inhibitor, single point] |  |
| Cc1cc(C)cc(NC(=O)CN2CCCN(S(=O)(=O)c3ccc(Br)s3)CC2)c1 | inconclusive: 39.8 µM [inhibitor, single point] |  |
| O=C(/C=C/c1ccc(F)cc1)NCCc1ccc2c(c1)OCCO2 | inconclusive: 10 µM [inhibitor, partial curve, poor fit] |  |
| CCOC(=O)C(=CNc1cc(Cl)c(-c2ccco2)c(Cl)c1)C(=O)OCC | inconclusive: 6.31 µM [inhibitor, partial curve] |  |
| COc1ccc(-c2nc3sc(CCNC(=O)Cc4ccc(F)cc4)c(C)n3n2)cc1 | inconclusive: 28.2 µM [inhibitor, partial curve] |  |
| CC1CCN(c2nc(-c3ccncc3)nc3ccccc23)CC1 | inconclusive: 25.1 µM [inhibitor, partial curve] |  |
| Cc1ccc(Cc2cnc(NC(=O)CN3CCOCC3)s2)cc1Cl |  | inactive: -9.68% |
| COc1cccc2sc(NC(=O)c3ccc(S(=O)(=O)N4CCC(C)CC4)cc3)nc12 |  | inactive: 7.67% |
| O=C(NNC(=O)c1cc2cc3ccccc3nc2s1)c1ccc(F)cc1 | inconclusive: 3.16 µM [inhibitor, full curve] |  |
| O=S(=O)(c1ccc(F)cc1)N1CN(Cc2ccco2)c2nc3ccccc3nc21 | active: 31.6 µM |  |
| O=C(Nc1ccc(-c2nc3ccccc3o2)c(O)c1)c1ccccc1 |  | inactive: -5.39% |
| COC(=O)CCCCC1SCC2NC(=O)NC21O (stereo unspecified) |  | inactive: -11.3% |
| Cc1cccc(-c2nc(CCNC(=O)c3ccc(Br)o3)cs2)c1 | inconclusive: 12.6 µM [inhibitor, partial curve] |  |
| C#CCOCCOCCOCCNc1nc(N2CCOCC2)nc(N2CCN(C(=O)Cn3cc(CC(C)O)nn3)CC2)n1 (stereo unspecified) |  | inactive: -8.27% |

| SMILES | Potency | activity, negative = inhibition |
| --- | --- | --- |
| NS(=O)(=O)c1cccc(NS(=O)(=O)c2ccc(/C=C/C(=O)OCC(=O)c3ccc(Br)cc3)cc2)c1 | inconclusive: 7.08 µM [inhibitor, partial curve] |  |
| CC(C)c1ccc(-c2noc(SCC(=O)N3CCCCC3C)n2)cc1 (stereo unspecified) | inconclusive: 12.6 µM [inhibitor, partial curve] |  |
| Cc1cccc2sc(NNC(=O)c3cc(-c4cccs4)nc4ccccc34)nc12 | inconclusive: 4.47 µM [inhibitor, partial curve] |  |
| O=C(NC(NCc1ccccn1)(C(F)(F)F)C(F)(F)F)c1ccco1 |  | inactive: -9.92% |
| NC(=O)c1c(-c2cccs2)csc1N | inconclusive: 17.8 µM [inhibitor, partial curve] |  |
| Cn1c(CNC(=O)c2ccccc2F)nnc1SCc1ccc(Cl)cc1 |  | inactive: -2.59% |
| COC(=O)c1ccc(Sc2ccc(Cl)cc2)c(N)c1 | inconclusive: 17.8 µM [inhibitor, partial curve] |  |
| Cc1nn(C)c(N)c1[N+](=O)[O-] |  | inactive: -3.86% |
| Cc1ccc(S(=O)(=O)NNC(=O)c2sc3nc(C)cc(C)c3c2-n2cccc2)cc1 | inconclusive: 25.1 µM [inhibitor, partial curve, poor fit] |  |
| O=C1c2ccccc2C(=O)C1c1ccnc2ccccc12 | active: 1.78 µM |  |
| O=C1NC(c2ccccc2)(C(F)(F)F)SC2=CCCCCN12 (stereo unspecified) | inconclusive: 39.8 µM [inhibitor, single point] |  |
| O=C(O)/C=C/C(=O)Nc1cccc(C(F)(F)F)c1 |  | inactive: -5.08% |
| O=C(c1cc2ncc(CCCl)cn2n1)N1CCCCCC1 |  | inactive: -2.43% |
| CCOc1cccc2sc(Cl)nc12 |  | inactive: 1.34% |
| CCCN(CCC)C(=O)c1cc(-c2ccc3c(c2)OCO3)nc2ccccc12 | inconclusive: 15.8 µM [inhibitor, partial curve] |  |
| COc1ccc(CCNc2ncnc3nc[nH]c23)cc1OC | inconclusive: 31.6 µM [inhibitor, single point] |  |
| COC(=O)c1ccc(COc2cccc3c2CCN(Cc2cccc(C)c2)C3=O)o1 | inconclusive: 28.2 µM [inhibitor, single point] |  |
| CCCCC1=CC2=C(OC(C)=O)C(=O)C(C)(OC(=O)c3ccc(Cl)nc3)C(=O)C2=CO1 (stereo unspecified) | active: 22.4 µM |  |
| OCC[n+]1ccc(/C=C/c2c[nH]c3ccccc23)cc1 | inconclusive: 31.6 µM [activator, single point] |  |
| CCOc1ccc(NC(=O)c2c(NCc3cccnc3)sc3c2CCC(C)C3)cc1 (stereo unspecified) | active: 15.8 µM |  |
| N/C(Cc1ccc([N+](=O)[O-])cc1)=N\OC(=O)C(c1ccccc1)c1ccccc1 | inconclusive: 39.8 µM [inhibitor, single point] |  |
| Cc1onc(-c2ccccc2Cl)c1C(=O)N1CCN(c2nc3ccccc3s2)CC1 |  | inactive: -4.09% |
| Cc1ccc2cc(CCNC(=O)c3ccc(Br)o3)c(=O)[nH]c2c1 | inconclusive: 25.1 µM [inhibitor, partial curve, poor fit] |  |
| CCCOC(=O)C(C)n1c(-c2ccccc2)nc2ccccc2c1=O (stereo unspecified) | inconclusive: 11.2 µM [inhibitor, partial curve, poor fit] |  |

| SMILES | Potency | activity, negative = inhibition |
| --- | --- | --- |
| CC(NC(=O)OC(C)(C)C)C(=O)Oc1ccc2ccc(=O)oc2c1 (stereo unspecified) | inconclusive: 17.8 µM [inhibitor, partial curve] |  |
| CCn1c(C)nc2cc(C(=O)N/N=C/c3ccc(OC)cc3)ccc21 | inconclusive: 3.55 µM [inhibitor, single point] |  |
| CCC1=C2CC[C@H]3C(=O)N(CC)C(=O)[C@H]3[C@H]2[C@@]2(Cc3ccccc3)C(=O)N(CC3CC3)C(=O)N2C1=O |  | inactive: -4.89% |
| CC(C)(C)OC(=O)N1CCC(c2c(C(=O)N3CCN(c4ccccc4F)CC3)cnn2-c2ccccc2Cl)CC1 | inconclusive: 25.1 µM [inhibitor, single point] |  |
| CCOC(=O)N1CCC(N2C(=O)c3ccccc3C2Nc2ccccc2C)CC1 (stereo unspecified) | inconclusive: 17.8 µM [inhibitor, partial curve] |  |
| Cc1ccc(NC(=O)c2cnc(SCC(=O)N3CCCc4ccccc43)n(C)c2=O)cc1 |  | inactive: 2.33% |
| CCOC(=O)c1c(NC(=O)c2noc(C)c2[N+](=O)[O-])sc(C(C)=O)c1C |  | inactive: -6.65% |
| COCCNC(=S)N(CCc1c(C)[nH]c2ccc(F)cc12)Cc1cccs1 |  | inactive: -12.6% |
| Cc1cc(N2CCN(c3ccccc3F)CC2)nc2cc(O)ccc12 | inconclusive: 4.47 µM [inhibitor, partial curve] |  |
| CC(=O)Nc1c(C)nn(-c2ccccc2)c1N1CCC(C(=O)NCc2cccc(Cl)c2)CC1 |  | inactive: 0.0375% |
| COc1cc(Cl)c(NC(=O)CCc2nc3cccnc3n2-c2ccccc2)c(OC)c1 | inconclusive: 31.6 µM [inhibitor, partial curve] |  |
| Cc1ccc(/C=C(\C#N)c2nc3ccccc3[nH]2)s1 | inconclusive: 3.16 µM [inhibitor, full curve] |  |
| O=C(Nc1ccc(N2CCN(c3ccc(O)cc3)CC2)cc1)Oc1ccccc1 | active: 5.01 µM |  |
| COc1ccc(C(=O)c2ccc(OC)c(N)c2)cc1N |  | inactive: -4.56% |
| CCOC(CNC(=O)c1ccc(N2CCc3ccccc32)c([N+](=O)[O-])c1)OCC | active: 12.6 µM |  |
| O=C(N/C=C/c1ccccc1)Nc1ccc(Cl)cc1 | inconclusive: 0.631 µM [inhibitor, full curve] |  |
| CN1CCN(C2=C(Cl)C(=O)N(CCc3ccccc3)C2=O)CC1 | inconclusive: 31.6 µM [inhibitor, partial curve] |  |
| O=C1CC(c2cc(F)cc(F)c2)c2cc3c(cc2N1)OCO3 (stereo unspecified) |  | inactive: -0.179% |
| Cc1cc(C)cc(C(=O)n2nc(C)c(S(=O)(=O)N3CCCCCC3)c2C)c1 | inconclusive: 14.1 µM [inhibitor, partial curve] |  |
| O=c1[nH]c2ccccc2nc1/C=C/c1ccc(F)cc1 | inconclusive: 10 µM [inhibitor, partial curve] |  |
| COc1ccc(CCNC(=O)c2cc(-c3ccco3)on2)cc1OC | inconclusive: 6.31 µM [inhibitor, partial curve] |  |
| CCCCCOc1ccc(Cn2c(=O)oc3ccc(C)cc32)cc1OC |  | inactive: -4.93% |
| CN1CCN(c2ccccc2NC(=O)c2ccc(N3CCCC3)c([N+](=O)[O-])c2)CC1 | inconclusive: 22.4 µM [inhibitor, partial curve] |  |
